Experimental findings from publication PMC4336329 (PLoS ONE, 2015) are described below.

Out of some 310,000 compounds screened, about 14,000 (4.5%) showed an effect of 50% or more. The effect is printed as a negative number. The list shows a part of the results.
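Also: peak tail current of the secondary pulse compared with the same well before compound.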

Sequence of human ether-à-go-go-related gene (hERG) potassium channel (Q12809 whole entry, looked up): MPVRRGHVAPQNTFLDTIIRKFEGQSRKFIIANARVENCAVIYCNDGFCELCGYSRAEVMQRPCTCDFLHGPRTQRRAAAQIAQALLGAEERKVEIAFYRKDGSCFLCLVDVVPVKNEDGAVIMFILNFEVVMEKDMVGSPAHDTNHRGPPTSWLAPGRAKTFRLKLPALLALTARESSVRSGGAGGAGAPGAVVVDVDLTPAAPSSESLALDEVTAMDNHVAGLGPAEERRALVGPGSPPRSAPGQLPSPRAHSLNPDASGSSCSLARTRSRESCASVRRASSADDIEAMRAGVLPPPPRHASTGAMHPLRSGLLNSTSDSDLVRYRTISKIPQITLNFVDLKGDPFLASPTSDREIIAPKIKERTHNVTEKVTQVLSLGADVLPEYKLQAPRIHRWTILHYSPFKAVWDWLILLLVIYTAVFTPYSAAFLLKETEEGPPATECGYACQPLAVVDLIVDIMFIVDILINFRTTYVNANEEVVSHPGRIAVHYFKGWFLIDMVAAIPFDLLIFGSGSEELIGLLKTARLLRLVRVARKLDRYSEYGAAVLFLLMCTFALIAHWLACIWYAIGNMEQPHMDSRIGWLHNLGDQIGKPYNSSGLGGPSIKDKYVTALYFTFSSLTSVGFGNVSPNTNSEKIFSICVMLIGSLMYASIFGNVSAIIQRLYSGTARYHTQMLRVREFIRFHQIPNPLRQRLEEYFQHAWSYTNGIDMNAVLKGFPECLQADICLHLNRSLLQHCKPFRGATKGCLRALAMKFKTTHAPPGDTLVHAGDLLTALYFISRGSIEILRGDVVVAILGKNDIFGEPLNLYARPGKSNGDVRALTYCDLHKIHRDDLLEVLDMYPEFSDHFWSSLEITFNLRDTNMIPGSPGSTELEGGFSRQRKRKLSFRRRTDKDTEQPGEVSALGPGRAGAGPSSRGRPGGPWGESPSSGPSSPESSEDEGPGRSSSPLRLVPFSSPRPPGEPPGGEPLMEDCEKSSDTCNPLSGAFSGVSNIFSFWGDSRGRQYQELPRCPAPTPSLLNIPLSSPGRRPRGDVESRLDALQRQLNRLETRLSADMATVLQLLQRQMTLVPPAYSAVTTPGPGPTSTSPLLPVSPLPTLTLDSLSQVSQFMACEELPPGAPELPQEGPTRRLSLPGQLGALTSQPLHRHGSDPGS

The assay has as its target human ether-à-go-go-related gene (hERG) potassium channel (human, UniProt Q12809). Description: primary screen, population patch clamp on CHO cells stably expressing hERG.
On to `COc1ccc(S(=O)(=O)N(CC(=O)N2CCN(C)CC2)C2CCCCC2)cc1OC`, for which the “hERG current change (%, negative = inhibition) at 10uM” value is given as -7.66%.

As for `Cc1cc(Cl)ccc1C(=O)C1CCCN(C(=O)c2nonc2C)C1` (stereo not drawn), the “hERG current change (%, negative = inhibition) at 10uM” value is on record as -26.3%. Next, `O=C(Cc1cn2ccsc2n1)Nc1cccc2cnccc12`: 9.76%.

Consider `CC(=O)C1=C(O)C(=O)N(Cc2cccnc2)C1c1ccccc1` (stereo not drawn), for which the “hERG current change (%, negative = inhibition) at 10uM” value was found to be 8.83%. Next, `Cc1nc(C(F)(F)F)c(C(=O)NC(=O)Nc2ccc(OC(F)(F)F)cc2)s1`: -13.4%. Next, `O=C(CCn1c(=O)[nH]c2ccsc2c1=O)N1CC(=O)N(CCc2ccccc2)C(=O)C1`: -0.115%; `O=C(NCCS(=O)(=O)N1CCN(c2ccccc2F)CC1)c1ccc(Cl)cc1`: -55.5%. Take `COc1ccc2oc(=N)c(C(=O)Nc3cccc(C)c3C)cc2c1`: the “hERG current change (%, negative = inhibition) at 10uM” value came to 9.06%.

Turning to `COC(=O)/C(=C/Nc1ccccc1)[N+](=O)[O-]`, the “hERG current change (%, negative = inhibition) at 10uM” value was -7.37%. Regarding `CC(C)Oc1cccc(C(=O)NC2=NCCS2)c1`, the “hERG current change (%, negative = inhibition) at 10uM” value was -4.17%. Take `COc1ccc(NC(=O)C(Sc2nnc(-c3ccncc3)n2-c2ccccc2C)c2ccccc2)cc1Cl` (stereo not drawn): the “hERG current change (%, negative = inhibition) at 10uM” value is listed as -18%. As for `COc1ccccc1/C=C/C(=O)OCC(=O)c1c(N)n(C)c(=O)n(C)c1=O`, the figure is 2.04%; as for `CCCNC(=S)NC1CC2CCCC(C1)N2CC(C)C.Cl` (stereo not drawn), 13.1%.

As for `CCCC(=O)NC(C)c1nc(-c2ccc(C)cc2)no1` (stereo not drawn), the “hERG current change (%, negative = inhibition) at 10uM” value was 15.3%.

Take `COC(=O)C(C)Oc1ccc(=O)[nH]n1` (stereo not drawn): the “hERG current change (%, negative = inhibition) at 10uM” value stood at 4.33%. As for `Cc1ccc(-n2c(O)c(/C=N/c3ncn[nH]3)c3ccccc3c2=O)cc1`, the figure is 15.8%; as for `CCN(CC)C1=CC(=O)OC12CCCCC2`, 6.92%. For `O=C(COc1ccccc1)NCC(=O)N/N=C/c1cccs1`, the “hERG current change (%, negative = inhibition) at 10uM” value was -7.57%. As for `COCCN1CC(=O)N2C(c3cccc(C)c3)c3[nH]c4ccccc4c3C[C@H]2C1=O` (stereo partly drawn), the figure is -43.9%.

For `CC1CCN(C(=O)c2cc(Cl)nc3ccccc23)CC1`, the “hERG current change (%, negative = inhibition) at 10uM” value worked out at 2.15%. Next, `O=S1(=O)CCC(n2ncc3c2/C(=C/c2ccccc2)CC3)C1` (stereo not drawn): 38.4%; `COc1ccc(Br)cc1CNc1ccccc1.O=C(O)C(=O)O`: 9.4%. Next, `COC(=O)c1ccc(CNC(=O)COC(=O)CC23CC4CC(CC(Br)(C4)C2)C3)cc1`: 1.34%; `COc1ccc2c(c1)c1nc3n(c(=O)c1n2CC(=O)Nc1ccccc1)CCS3`: 16.2%; `COc1ccc(/C=C/c2ccc3c(Br)ccc(O)c3n2)cc1`: 9.55%. Next, `CCN(CC)c1ccc(/C=N/NC(=O)c2nnn(-c3nonc3N)c2C(C)C)c(O)c1`: 19.8%; `CCNC(=O)NC(=O)CSc1nc2ccccc2n1CCOC`: -9.5%; `CCCCCC(=O)N1CC2(CC(c3cccc(NC(=O)COc4ccc(Cl)cc4)c3)=NO2)C[C@@H]1C(N)=O` (stereo partly drawn): -77%. As to `CSCC[C@H](NC(=O)Nc1ccc(S(N)(=O)=O)cc1)C(=O)O`, the “hERG current change (%, negative = inhibition) at 10uM” value is 9.48%. As for `COc1ccc(-c2ccc(=O)n(Cc3cccc([N+](=O)[O-])c3)n2)cc1`, the figure is -21.2%; as for `CC(=O)Nc1ccc(Nc2c([N+](=O)[O-])c(=O)n(-c3ccccc3)c3ccccc23)cc1`, 6.57%; as for `Cc1ccc2oc(C(=O)N3CCN(CCO)CC3)c(C)c2c1`, 13.7%. `CCOC(=O)c1sc(NC(=O)CSc2nc3c(cc2C#N)CCCCC3)c(C#N)c1C`: the “hERG current change (%, negative = inhibition) at 10uM” value is reported as -2.01%. Next, `COC(=O)c1c(C)[nH]c(C)c1-c1ccccc1Cl`: -17.6%; `FC(F)(F)c1cccc(/C=N/NC(=S)NC2CCCCC2)c1`: 16.7%; `COC(=O)C1=C(N)Oc2cc(C)n(CC3CCCO3)c(=O)c2C1c1ccc(Cl)c(Cl)c1` (stereo not drawn): 3.95%. As to `O=C(Nc1ccc(Oc2ccc(Cl)cc2)c(Cl)c1)c1cc(I)cc(I)c1O`, the “hERG current change (%, negative = inhibition) at 10uM” value turned out to be 11.4%. Turning to `Cn1c(O)c(C=NC2CCN(Cc3ccccc3)CC2)c(=O)n(C)c1=O`, the “hERG current change (%, negative = inhibition) at 10uM” value is -20.4%. Take `COC(=O)c1sc(NC(=O)c2csc3c2CCCC3)nc1C`: the “hERG current change (%, negative = inhibition) at 10uM” value is listed as 0.85%.

Consider `CC1(C)CC(=O)C2=C(C1)OC(N)=C(C#N)C2Cc1ccccc1` (stereo not drawn), for which the “hERG current change (%, negative = inhibition) at 10uM” value is -8.21%. As for `S=c1[nH]nc(-c2ccco2)n1-c1ccc(Cl)cc1`, the figure is 1.73%; as for `COC(=O)c1sccc1NC(=O)c1c(Cl)cnn1C`, -14.6%; as for `CCOC(=O)C1=C(O)C(=O)N(Cc2ccccc2)CC1`, 7.78%.

Regarding `COc1ccc(-c2sc3cc4c(cc3c2C#CCO)OCO4)cc1`, the “hERG current change (%, negative = inhibition) at 10uM” value amounted to 9.76%. Consider `CCN(CC)CCNC(=O)C(C)c1nn(CC)c(=O)c2ccccc12.Cl` (stereo not drawn), for which the “hERG current change (%, negative = inhibition) at 10uM” value stood at 7.49%. Next, `COC(=O)C1CCN(CC(=O)Nc2sc3c(c2C#N)CCC3)CC1`: -8.65%.

Take `COC(=O)C(Cc1ccccc1)NC(=O)CNC(=O)c1sc2ccccc2c1Cl` (stereo not drawn): the “hERG current change (%, negative = inhibition) at 10uM” value stood at 12.3%. As for `COc1cccc(-c2nn[nH]n2)c1O`, the figure is 9.02%; as for `COc1cc(O)c(C(CCN2CCCC(C)C2)c2ccc(N(C)C)cc2)c(OC)c1` (stereo not drawn), -29.5%; as for `Cc1ccccc1N1C(=O)CC(N2CCN(C(=O)c3ccco3)CC2)C1=O` (stereo not drawn), 12%. Take `CCOC(=O)NC(NC(=O)OCC)C(=O)c1ccc(F)cc1`: the “hERG current change (%, negative = inhibition) at 10uM” value was -7.77%.

`COc1ccc(N2CCN(Cc3nc4c(c(=O)[nH]c(=O)n4C)n3CCCc3ccccc3)CC2)cc1`: the “hERG current change (%, negative = inhibition) at 10uM” value was -41.8%. Next, `CC(=O)Nc1ccc(NC(=S)NC(=O)c2ccc([N+](=O)[O-])c(C)c2)cc1`: 21.9%; `C#CCCC(=O)c1ccccc1/C=[N+](\[O-])c1ccccc1`: 9.61%; `O=C(Nc1cccnc1)c1ccc(CN2CCc3ccccc3C2)cc1`: 8.68%. With `Cn1c(=O)c2c(ncn2CC(=O)N2CCN(C(=O)c3ccco3)CC2)n(C)c1=O`, the “hERG current change (%, negative = inhibition) at 10uM” value is given as 6.48%. As for `NC(=O)CC(NC(=O)c1ccccc1)c1ccc(N2CCCCCC2)c([N+](=O)[O-])c1` (stereo not drawn), the figure is -28.3%.
